These results are taken from publication PMC12820563.

This is one part of the list. The list includes weakly bound sequences.

The target in the experiment is T1, MBP-FoxP3dN (UniProt Q99JB6).
T1 sequence: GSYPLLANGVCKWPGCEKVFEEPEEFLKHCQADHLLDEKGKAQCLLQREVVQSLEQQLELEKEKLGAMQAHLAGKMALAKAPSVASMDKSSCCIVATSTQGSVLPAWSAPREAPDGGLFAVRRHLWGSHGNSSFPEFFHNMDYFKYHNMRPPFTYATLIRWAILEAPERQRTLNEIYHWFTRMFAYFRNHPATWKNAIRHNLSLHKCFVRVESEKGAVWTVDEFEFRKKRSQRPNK
The experiment in a line: PD-seq (MBP pull-down with sequencing). The following applies: 20 mM Tris-HCl pH 7.5, 100 mM NaCl, 1.5 mM MgCl2, 0.4 uM protein, 0.1 uM dsDNA library, 30 min, room temperature, amylose pull-down; high values mean tight binding; double strand, one strand shown.
As for “GATGATTGTTCTCCCAGCTGATGAATTCGCTATATCGAGTAAACAAATTTTCCTAATCTTTCTGTTCAAGCGCCATCTAC”, the binding signal (RPM ratio (pull-down/input)) was 0.651.
For the sequence “GATGATTGTTCTCCCAGCTGATGAATTCCGCTATTCGAGTAAACAAATTTTCCTAATCTTTCTGTTCAAGCGCCATCTAC”, the binding signal (RPM ratio (pull-down/input)) amounted to 2.85.
For the sequence “GATGATTGTTCTCCCAGCTGATGAATTGTAGACTTCGAGTAAACAAATTTTCCTAATCTTTCTGTTCAAGCGCCATCTAC”, the binding signal (RPM ratio (pull-down/input)) is 0.607.
To “GATGATTGTTCTCCCAGCTGATGAATTGCTGAGTTCGAGTAAACAAATTTTCCTAATCTTTCTGTTCAAGCGCCATCTAC” belongs 0.686; to “GATGATTGTTCTCCCAGCTGATGAATTAAAAGCATCGAGTAAACAAATTTTCCTAATCTTTCTGTTCAAGCGCCATCTAC”, 0.976.
To “GATGATTGTTCTCCCAGCTGATGAATTTGGATAGTCGAGTAAACAAATTTTCCTAATCTTTCTGTTCAAGCGCCATCTAC” belongs 0.656; to “GATGATTGTTCTCCCAGCTGATGAATTTCTTATGTCGAGTAAACAAATTTTCCTAATCTTTCTGTTCAAGCGCCATCTAC”, 0.657.
To “GATGATTGTTCTCCCAGCTGATGAATTGTATTGGTCGAGTAAACAAATTTTCCTAATCTTTCTGTTCAAGCGCCATCTAC” belongs 4.59.
For the sequence “GATGATTGTTCTCCCAGCTGATGAATTTTCTACGTCGAGTAAACAAATTTTCCTAATCTTTCTGTTCAAGCGCCATCTAC”, the binding signal (RPM ratio (pull-down/input)) came to 0.24.
To “GATGATTGTTCTCCCAGCTGATGAATTCTTTGAGTCGAGTAAACAAATTTTCCTAATCTTTCTGTTCAAGCGCCATCTAC” belongs 0.254; to “GATGATTGTTCTCCCAGCTGATGAATTACAGCGGTCGAGTAAACAAATTTTCCTAATCTTTCTGTTCAAGCGCCATCTAC”, 0.378.
To “GATGATTGTTCTCCCAGCTGATGAATTCGGTACATCGAGTAAACAAATTTTCCTAATCTTTCTGTTCAAGCGCCATCTAC” belongs 0.578; to “GATGATTGTTCTCCCAGCTGATGAATTCCATAATTCGAGTAAACAAATTTTCCTAATCTTTCTGTTCAAGCGCCATCTAC”, 0.332.
To “GATGATTGTTCTCCCAGCTGATGAATTCCTGTCCTCGAGTAAACAAATTTTCCTAATCTTTCTGTTCAAGCGCCATCTAC” belongs 0.302.
For the sequence “GATGATTGTTCTCCCAGCTGATGAATTTACTGTCTCGAGTAAACAAATTTTCCTAATCTTTCTGTTCAAGCGCCATCTAC”, the binding signal (RPM ratio (pull-down/input)) is 1.38.
To “GATGATTGTTCTCCCAGCTGATGAATTGCCCCTATCGAGTAAACAAATTTTCCTAATCTTTCTGTTCAAGCGCCATCTAC” belongs 0.532.
“GATGATTGTTCTCCCAGCTGATGAATTCGTTGGCTCGAGTAAACAAATTTTCCTAATCTTTCTGTTCAAGCGCCATCTAC”: the binding signal (RPM ratio (pull-down/input)) stood at 2.07.
“GATGATTGTTCTCCCAGCTGATGAATTCCCCCCCTCGAGTAAACAAATTTTCCTAATCTTTCTGTTCAAGCGCCATCTAC”: the binding signal (RPM ratio (pull-down/input)) stood at 0.208.
To “GATGATTGTTCTCCCAGCTGATGAATTCACGGAGTCGAGTAAACAAATTTTCCTAATCTTTCTGTTCAAGCGCCATCTAC” belongs 0.185; to “GATGATTGTTCTCCCAGCTGATGAATTGGATTACTCGAGTAAACAAATTTTCCTAATCTTTCTGTTCAAGCGCCATCTAC”, 1.88.
Turning to “GATGATTGTTCTCCCAGCTGATGAATTCCTAGTGTCGAGTAAACAAATTTTCCTAATCTTTCTGTTCAAGCGCCATCTAC”, the binding signal (RPM ratio (pull-down/input)) is 0.373.
As for “GATGATTGTTCTCCCAGCTGATGAATTATTCACGTCGAGTAAACAAATTTTCCTAATCTTTCTGTTCAAGCGCCATCTAC”, the binding signal (RPM ratio (pull-down/input)) turned out to be 0.343.
To “GATGATTGTTCTCCCAGCTGATGAATTTGATTGTTCGAGTAAACAAATTTTCCTAATCTTTCTGTTCAAGCGCCATCTAC” belongs 6.32.
To “GATGATTGTTCTCCCAGCTGATGAATTTTTGGTGTCGAGTAAACAAATTTTCCTAATCTTTCTGTTCAAGCGCCATCTAC” belongs 0.396; to “GATGATTGTTCTCCCAGCTGATGAATTCAGCGTATCGAGTAAACAAATTTTCCTAATCTTTCTGTTCAAGCGCCATCTAC”, 1.13.
As for “GATGATTGTTCTCCCAGCTGATGAATTATGAAGATCGAGTAAACAAATTTTCCTAATCTTTCTGTTCAAGCGCCATCTAC”, the binding signal (RPM ratio (pull-down/input)) was determined as 0.339.
Turning to “GATGATTGTTCTCCCAGCTGATGAATTCCTTATGTCGAGTAAACAAATTTTCCTAATCTTTCTGTTCAAGCGCCATCTAC”, the binding signal (RPM ratio (pull-down/input)) is 0.316.
To “GATGATTGTTCTCCCAGCTGATGAATTGCCATATTCGAGTAAACAAATTTTCCTAATCTTTCTGTTCAAGCGCCATCTAC” belongs 0.952.
“GATGATTGTTCTCCCAGCTGATGAATTACCAATTTCGAGTAAACAAATTTTCCTAATCTTTCTGTTCAAGCGCCATCTAC”: the binding signal (RPM ratio (pull-down/input)) is 0.407.
To “GATGATTGTTCTCCCAGCTGATGAATTTCGTATTTCGAGTAAACAAATTTTCCTAATCTTTCTGTTCAAGCGCCATCTAC” belongs 2.47.
For “GATGATTGTTCTCCCAGCTGATGAATTCAGAGGCTCGAGTAAACAAATTTTCCTAATCTTTCTGTTCAAGCGCCATCTAC”, the binding signal (RPM ratio (pull-down/input)) worked out at 0.387.
To “GATGATTGTTCTCCCAGCTGATGAATTGGGATCCTCGAGTAAACAAATTTTCCTAATCTTTCTGTTCAAGCGCCATCTAC” belongs 0.346.
